# Data taken from the supplement of paper PMC8728848.
# Some of the results follow.
# B1: E-Selectin (Homo sapiens), P16581 (protein)
# chain: MIASQFLSALTLVLLIKESGAWSYNTSTEAMTYDEASAYCQQRYTHLVAIQNKEEIEYLNSILSYSPSYYWIGIRKVNNVWVWVGTQKPLTEEAKNWAPGEPNNRQKDEDCVEIYIKREKDVGMWNDERCSKKKLALCYTAACTNTSCSGHGECVETINNYTCKCDPGFSGLKCEQIVNCTALESPEHGSLVCSHPLGNFSYNSSCSISCDRGYLPSSMETMQCMSSGEWSAPIPACNVVECDAVTNPANGFVECFQNPGSFPWNTTCTFDCEEGFELMGAQSLQCTSSGNWDNEKPTCKAVTCRAVRQPQNGSVRCSHSPAGEFTFKSSCNFTCEEGFMLQGPAQVECTTQGQWTQQIPVCEAFQCTALSNPERGYMNCLPSASGSFRYGSSCEFSCEQGFVLKGSKRLQCGPTGEWDNEKPTCEAVRCDAVHQPPKGLVRCAHSPIGEFTYKSSCAFSCEEGFELHGSTQLECTSQGQWTEEVPSCQVVKCSSLAVPGKINMSCSGEPVFGTVCKFACPEGWTLNGSAARTCGATGHWSGLLPTCEAPTESNIPLVAGLSAAGLSLLTLAPFLLWLRKCLRKAKKFVPASSCQSLESDGSYQKPSYIL
# What was measured:
# Assay in all cases: glycan array binding signal (z-score within array); higher = stronger binding
# Conditions in all cases: glycan notation: IUPAC condensed, linker removed
# [1] = target: Neu5Ac(a2-3)[Neu5Ac(a2-6)]GalNAc
# Method in brief: (§1)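 Glycan array binding is given as a within-array Z-score, which can be read as non-binding when negative. The arrays, 3228 of them, came from the Consortium for Functional Glycomics database and were retained only where the protein sequence was available. Z-scores were averaged across arrays of the same protein sequence at different concentrations or buffers and across linkers.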
# [2] = target: Neu5Ac(a2-6)Gal
# Method in brief: as §1
# [3] = target: Neu5Ac(a2-6)Gal(b1-4)Glc
# Method in brief: as §1
# [4] = target: Neu5Ac(a2-6)Gal(b1-4)GlcNAc
# Method in brief: as §1
# [5] = target: Neu5Ac(a2-6)Gal(b1-4)GlcNAc(b1-2)Man(a1-3)[Gal(b1-4)GlcNAc(b1-2)Man(a1-6)]Man(b1-4)GlcNAc(b1-4)GlcNAc
# Method in brief: as §1
# [6] = target: Neu5Ac(a2-6)Gal(b1-4)GlcNAc(b1-2)Man(a1-3)[GlcNAc(b1-2)Man(a1-6)]Man(b1-4)GlcNAc(b1-4)GlcNAc
# Method in brief: as §1
# [7] = target: Neu5Ac(a2-6)Gal(b1-4)GlcNAc(b1-2)Man(a1-3)[GlcNAc(b1-2)Man(b1-4)GlcNAc(b1-2)Man(a1-6)]Man(b1-4)GlcNAc(b1-4)GlcNAc
# Method in brief: as §1
# [8] = target: Neu5Ac(a2-6)Gal(b1-4)GlcNAc(b1-2)Man(a1-3)[Neu5Ac(a2-6)Gal(b1-4)GlcNAc(b1-2)Man(a1-6)]Man(b1-4)GlcNAc(b1-4)GlcNAc
# Method in brief: as §1
# [9] = target: Neu5Ac(a2-6)Gal(b1-4)GlcNAc(b1-2)Man(a1-6)[Gal(b1-4)GlcNAc(b1-2)Man(a1-3)]Man(b1-4)GlcNAc(b1-4)GlcNAc
# Method in brief: as §1
# [10] = target: Neu5Ac(a2-6)Gal(b1-4)GlcNAc(b1-2)Man(a1-6)[GlcNAc(b1-2)Man(a1-3)]Man(b1-4)GlcNAc(b1-4)GlcNAc
# Method in brief: as §1
# [11] = target: Neu5Ac(a2-6)Gal(b1-4)GlcNAc(b1-3)Gal(b1-4)GlcNAc
# Method in brief: as §1
# [12] = target: Neu5Ac(a2-6)Gal(b1-4)GlcNAc(b1-3)Gal(b1-4)[Fuc(a1-3)]GlcNAc(b1-3)Gal(b1-4)[Fuc(a1-3)]GlcNAc
# Method in brief: as §1
# [13] = target: Neu5Ac(a2-6)Gal(b1-4)GlcNAc6S
# Method in brief: as §1
# [14] = target: Neu5Ac(a2-6)GalNAc
# Method in brief: as §1
# [15] = target: Neu5Ac(a2-6)GalNAc(b1-4)GlcNAc
# Method in brief: as §1
# [16] = target: Neu5Ac(a2-8)Neu5Ac
# Method in brief: as §1
# [17] = target: Neu5Ac(a2-8)Neu5Ac(a2-3)Gal(b1-4)Glc
# Method in brief: as §1
# [18] = target: Neu5Ac(a2-8)Neu5Ac(a2-3)[GalNAc(b1-4)]Gal(b1-4)Glc
# Method in brief: as §1
# [19] = target: Neu5Ac(a2-8)Neu5Ac(a2-8)Neu5Ac
# Method in brief: as §1
# [20] = target: Neu5Ac(a2-8)Neu5Ac(a2-8)Neu5Ac(a2-3)Gal(b1-4)Glc
# Method in brief: as §1
# [21] = target: Neu5Ac(a2-8)Neu5Ac(a2-8)Neu5Ac(a2-3)[GalNAc(b1-4)]Gal(b1-4)Glc
# Method in brief: as §1
# [22] = target: Neu5Ac(a2-8)Neu5Ac(a2-8)Neu5Ac(a2-8)Neu5Ac(a2-3)[GalNAc(b1-4)]Gal(b1-4)Glc
# Method in brief: as §1
# [23] = target: Neu5Ac(b1-6)GalNAc
# Method in brief: as §1
# [24] = target: Neu5Ac(b2-6)Gal(b1-4)GlcNAc
# Method in brief: as §1
# [25] = target: Neu5Ac(b2-6)GalNAc
# Method in brief: as §1
# [26] = target: Neu5Ac9Ac(a2-6)Gal(b1-4)GlcNAc
# Method in brief: as §1
# [27] = target: Neu5Gc(a2-3)Gal(b1-3)GlcNAc
# Method in brief: as §1
# [28] = target: Neu5Gc(a2-3)Gal(b1-3)[Fuc(a1-4)]GlcNAc
# Method in brief: as §1
# [29] = target: Neu5Gc(a2-3)Gal(b1-4)Glc
# Method in brief: as §1
# [30] = target: Neu5Gc(a2-3)Gal(b1-4)GlcNAc
# Method in brief: as §1
binder,measurement,setting,value
B1,glycan array binding signal (z-score),[1],-0.134
same,glycan array binding signal (z-score),[2],-0.129
same,glycan array binding signal (z-score),[3],-0.086
same,glycan array binding signal (z-score),[4],-0.166
same,glycan array binding signal (z-score),[5],-0.204
same,glycan array binding signal (z-score),[6],-0.145
same,glycan array binding signal (z-score),[7],-0.135
same,glycan array binding signal (z-score),[8],-0.149
same,glycan array binding signal (z-score),[9],-0.253
same,glycan array binding signal (z-score),[10],-0.282
same,glycan array binding signal (z-score),[11],-0.141
same,glycan array binding signal (z-score),[12],-0.077
same,glycan array binding signal (z-score),[13],0.107
same,glycan array binding signal (z-score),[14],-0.201
same,glycan array binding signal (z-score),[15],-0.117
same,glycan array binding signal (z-score),[16],0.062
same,glycan array binding signal (z-score),[17],-0.078
same,glycan array binding signal (z-score),[18],-0.1
same,glycan array binding signal (z-score),[19],-0.021
same,glycan array binding signal (z-score),[20],-0.175
same,glycan array binding signal (z-score),[21],-0.132
same,glycan array binding signal (z-score),[22],-0.09
same,glycan array binding signal (z-score),[23],-0.129
same,glycan array binding signal (z-score),[24],-0.251
same,glycan array binding signal (z-score),[25],-0.231
same,glycan array binding signal (z-score),[26],-0.181
same,glycan array binding signal (z-score),[27],-0.199
same,glycan array binding signal (z-score),[28],12.1
same,glycan array binding signal (z-score),[29],-0.023
same,glycan array binding signal (z-score),[30],-0.191
